Measured values published in the supplement of paper PMC11417369.
The other results are listed elsewhere or left out.

tested on: PF3D7_0420300 AP2 domain 1 (GST-tagged); assay: gcPBM binding intensity (ln(normalized median fluorescence intensity)); higher = stronger DNA binding
Outline: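 Using an Agilent 4 × 180k array, primer-extended double-stranded 36-bp intergenic genomic probes and negative controls were exposed for 1 h to GST-fused P. falciparum DNA-binding domains expressed in E. coli. Binding was carried out in 1× PBS with 1% milk, 0.2 mg/ml BSA, 0.5% salmon testes DNA and 0.03% Triton X-100, and protein was detected with Alexa488 anti-GST antibody and a 488 nm scan. Binding intensity is the highest Masliner-normalised natural-log median intensity across replicate spots of either probe orientation.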

| Sequence | gcPBM binding intensity (ln) |
| --- | --- |
| TAGCTGTTCAAAAAATGTACATATATAATATATATA [XGTACX_site5842] | 9.02 |
| TTCTATATATAATATTGTACTTAATTATTTTATTTT [XGTACX_site2701] | 9.31 |
| ATATAATAACATAACACACACATGTATTTATAGGTG [CACACA_site359] | 9.87 |
| ACATTATAATATTATTGTACTATATATATAATATAT [XGTACX_site2291] | 9.18 |
| AAAAAAAAAAAAAAAACACACATATATATATAATAT [CACACA_site1159] | 9.44 |
| GATAATCAGAATGGGGTGCAAAGAAAAAAAAAAAAA | 9.12 |
| TTATTGAACTTTTATAAAACCTGTATTATTATCTCT [CACACA_negctrl_site767] | 9.29 |
| TTATATTAATAATAAAGTACAAAAAATCATATATAA [XGTACX_site799] | 9.22 |
| TCCAGGCTACACTCTAGTACTCGTAGGGTTATGAGA [XGTACX_site4945] | 9.09 |
| TATTTCTTATTACATACACACATATACATATATGAC [CACACA_site3201] | 9.57 |
| ATATATATATATATATGTACATATGTTAGGATCAAA [XGTACX_site8626] | 9.35 |
| ATGACATATAAATATACACACATACGTAAGTATATT [CACACA_site5058] | 9.36 |
| TACATACTAAAAAAATGTACTTGTATTGTTTTTTTA [XGTACX_site8357] | 9.03 |
| GAAATATTTGTAAAAACATGCATGGTACTTTTAAAA [TGCATGCA_site6] | 9.2 |
| ACATAAGAATTTTTATGTACTCATAATATTTTATAT [XGTACX_site2398] | 8.98 |
| TTATTTAACGTATTCTCACACATATATATATATAAT [CACACA_site5226] | 9.35 |
| TATATATATATATACACATGCAAAAATTTTTAATTT [TGCATGCA_site82] | 9.29 |
| TTTCTATATGGATTTGCACACATAAAAATGCTTATA [CACACA_site8751] | 9.37 |
| TCTTTAATGATGTGTACACAAGAAAACATTGTTAAG [CACACA_site5299] | 9.26 |
| TAGAAGCATCATTTTACACACATGCAAATGTAAAAT [CACACA_site1893] | 9.33 |
| AAAAATAAGAGCGTAGCACACACGCATTTTATAAAT [CACACA_site8147] | 9.3 |
| TTAAATTATTAGAGAGTGCATTATATATATTATACA [GTGCAC_site9711] | 8.98 |

| Sequence | gcPBM binding intensity (ln) |
| --- | --- |
| TACTGTTATAAATGTGGTACTAATATTATACATATA [XGTACX_site5116] | 9.25 |
| GTGTGATGGTCCAATATACACACTTAAAAAAAAAAA [CACACA_site2426] | 9.03 |
| GTGGAATAATATATATGTACATATTTAAAATATTTA [XGTACX_site3499] | 9.08 |
| AATGGTCTTTTCAACACACGTACATAAAAATATTAT [CACACA_site2571] | 9.44 |
| ATTTTTTTACAAAAATGTACACATGAAATATGTAAT [XGTACX_site1372] | 9.15 |
| TGACAACATAGAGGGGCACACACATATATACATAAA [CACACA_site8550] | 9.87 |
| TAAAAGTATATATATACACACATAAATATATCTGTA [CACACA_site4537] | 9.25 |
| TATTATTTTAGAATGCGTACTTATAAAATATTTTAT [XGTACX_site867] | 9.12 |
| ATATATATATATATTACACACTTTTTCTTTTTTTTT [CACACA_site2780] | 9.47 |
| ATAATTCCAAGAATTTCATATATCTGAATTTTAGGT [GTGCAC_negctrl_site283] | 8.96 |
| AATAAACATAAATAAAAATTATAAAATATATATATG [CACACA_negctrl_site1709] | 9.18 |
| TTTACATTTCAGTAGACACACAAAAAATAATACTAA [CACACA_site512] | 9.28 |
| GAAAAAAAAGCTTGCACACGTATTTGCTTTATGTAT [CACACA_site4931] | 9.47 |
| TACATATATATATTATGTACATAAGGTTTGAGTTCA [XGTACX_site2726] | 9.33 |
| TTTTTGGTATTATTGTGTACTTATAAATAATATAAT [XGTACX_site4019] | 9.31 |
| ATATAAAATATTACGTGTACACATAAATAAAAATAA [XGTACX_site3746] | 9.41 |
| ATATATATAAATAATTGTACATAATAATAAAATATA [XGTACX_site4839] | 9.31 |
| ATATTTTGTAACTATACACACATATTTATATTATAA [CACACA_site7433] | 9.58 |
| CAAGTAGATATTATACGTACATATATATATATATAT [XGTACX_site8349] | 9.11 |
| TTTTATACATATTTTACACACTAAAATATACCTATA [CACACA_site6286] | 9.47 |
| TAAAAAATATACATTCGTACATATATATTATATATA [XGTACX_site7918] | 9.11 |
| ACAAAATAAAACATCTGTACATATTATTATTATAAG [XGTACX_site4802] | 9.2 |
